Test results reported in PubChem BioAssay (EPA / NIEHS).
A number of entries come with more than one value. The list is limited to them. An entry can have further records. Results that share an entry are repeated measurements (runs, samples, wells, individuals or studies). Inconclusive results are not listed. The calls were made as follows, unless noted: active = hit-call score of the fitted dose curve at least 0.9, where 1 is the maximum; inconclusive = response in the unintended direction; inactive = score below 0.9.

Test system: not listed separately
Test: ATG_ERE_CIS: Attagene CIS-FACTORIAL HepG2 Assay for Estrogen Response Element (ERE) (AID 2282940; active = hit-call score of the fitted dose curve at least 0.9, where 1 is the maximum; inactive = score below 0.9)
Conditions: HepG2 ERE cis-reporter, Attagene RNA transcript; actives raise or lower the signal
Procedure, shortened: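 Fluorescence of capillary-separated, FAM-labelled reporter cDNA fragments indicates reporter mRNA levels in HepG2 cells exposed to chemicals for 24 h. Transient transfection with cis-regulated units; data fitted in both directions against DMSO.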

Which AC50 does the source give for `C[C@]12CCC(=O)C=C1CC[C@@H]1[C@@H]2CC[C@]2(C)C(=O)CC[C@@H]12` here?
Its AC50 is “active: 38.7, 214, 17.6, 8.96 nM [separate samples]”.

With `C[C@]12CCC(=O)C=C1CC[C@@H]1[C@@H]2CC[C@@]2(C)[C@H]1CC[C@]2(C)O` as the compound, how does the AC50 read?
Its AC50 is “active: 8.52, 47.9, 48.5, 7.79 nM [separate samples]”.

Which AC50 does the source give for `CCCCCCCCCc1ccc(O)cc1` here?
Its AC50 is “active: 4.31, 6.44, 1.65, 6.32 µM [separate samples]”.

Target: Estrogen receptor (Homo sapiens) (UniProt P03372)
Test: ATG_ERa_TRANS: Attagene TRANS-FACTORIAL HepG2 Assay for human Estrogen Receptor alpha (ERa) (AID 2282970)
Conditions: HepG2 Attagene TRANS ERa GAL4 reporter, mRNA
Procedure, shortened: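 Gal4-fusion ERa transactivation, measured as reporter transcript level in transiently transfected HepG2 cells. Exposure 24 h; RT-PCR plus capillary electrophoresis with fluorescence detection.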

Sequence of UniProt P03372 (P03372 whole entry, looked up): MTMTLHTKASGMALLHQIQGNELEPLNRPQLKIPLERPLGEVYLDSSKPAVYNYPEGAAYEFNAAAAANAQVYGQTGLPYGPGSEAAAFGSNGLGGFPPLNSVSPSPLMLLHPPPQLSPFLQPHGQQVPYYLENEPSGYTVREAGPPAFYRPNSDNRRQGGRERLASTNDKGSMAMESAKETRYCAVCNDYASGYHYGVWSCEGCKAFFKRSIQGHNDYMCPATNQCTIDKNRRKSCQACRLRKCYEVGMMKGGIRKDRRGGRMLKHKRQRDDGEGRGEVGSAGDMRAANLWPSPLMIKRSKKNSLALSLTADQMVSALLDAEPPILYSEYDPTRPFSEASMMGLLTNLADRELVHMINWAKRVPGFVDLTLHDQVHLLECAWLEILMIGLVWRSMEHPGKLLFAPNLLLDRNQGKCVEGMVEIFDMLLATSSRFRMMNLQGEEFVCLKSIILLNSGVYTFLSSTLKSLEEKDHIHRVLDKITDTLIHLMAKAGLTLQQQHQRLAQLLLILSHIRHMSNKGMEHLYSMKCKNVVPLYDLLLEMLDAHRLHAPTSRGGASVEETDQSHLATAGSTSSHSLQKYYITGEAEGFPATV

Which AC50 does the source give for `CCC(=O)O[C@H]1CC[C@H]2[C@@H]3CCC4=CC(=O)CC[C@]4(C)[C@H]3CC[C@]12C` here?
The AC50 was “active: 9.14, 9.09, 4.33, 40.4 nM [separate samples]”.

With `CCC(C)(c1ccc(O)cc1)c1ccc(O)cc1` as the compound, how does the AC50 read?
The AC50 was “active: 118, 375, 256, 384 nM [separate samples]”.

Which AC50 does the source give for `C[C@]12CCC(=O)C=C1CC[C@@H]1[C@@H]2CC[C@@]2(C)[C@H]1CC[C@]2(C)O` here?
The AC50 was “active: 8.37, 8.27, 55, 8.04 nM [separate samples]”.
